# Laboratory results published in PMC4336329 (PLoS ONE, 2015).
# The whole screen tested about 310,000 compounds, of which about 2,200 (0.71%) showed an effect of 50% or more. The effect is printed as a negative number. The list shows a part of the results.
# Target: human ether-à-go-go-related gene (hERG) potassium channel (human, UniProt Q12809)
# Experiment: primary screen, population patch clamp on CHO cells stably expressing hERG
# Sequence of human ether-à-go-go-related gene (hERG) potassium channel (Q12809 whole entry, looked up): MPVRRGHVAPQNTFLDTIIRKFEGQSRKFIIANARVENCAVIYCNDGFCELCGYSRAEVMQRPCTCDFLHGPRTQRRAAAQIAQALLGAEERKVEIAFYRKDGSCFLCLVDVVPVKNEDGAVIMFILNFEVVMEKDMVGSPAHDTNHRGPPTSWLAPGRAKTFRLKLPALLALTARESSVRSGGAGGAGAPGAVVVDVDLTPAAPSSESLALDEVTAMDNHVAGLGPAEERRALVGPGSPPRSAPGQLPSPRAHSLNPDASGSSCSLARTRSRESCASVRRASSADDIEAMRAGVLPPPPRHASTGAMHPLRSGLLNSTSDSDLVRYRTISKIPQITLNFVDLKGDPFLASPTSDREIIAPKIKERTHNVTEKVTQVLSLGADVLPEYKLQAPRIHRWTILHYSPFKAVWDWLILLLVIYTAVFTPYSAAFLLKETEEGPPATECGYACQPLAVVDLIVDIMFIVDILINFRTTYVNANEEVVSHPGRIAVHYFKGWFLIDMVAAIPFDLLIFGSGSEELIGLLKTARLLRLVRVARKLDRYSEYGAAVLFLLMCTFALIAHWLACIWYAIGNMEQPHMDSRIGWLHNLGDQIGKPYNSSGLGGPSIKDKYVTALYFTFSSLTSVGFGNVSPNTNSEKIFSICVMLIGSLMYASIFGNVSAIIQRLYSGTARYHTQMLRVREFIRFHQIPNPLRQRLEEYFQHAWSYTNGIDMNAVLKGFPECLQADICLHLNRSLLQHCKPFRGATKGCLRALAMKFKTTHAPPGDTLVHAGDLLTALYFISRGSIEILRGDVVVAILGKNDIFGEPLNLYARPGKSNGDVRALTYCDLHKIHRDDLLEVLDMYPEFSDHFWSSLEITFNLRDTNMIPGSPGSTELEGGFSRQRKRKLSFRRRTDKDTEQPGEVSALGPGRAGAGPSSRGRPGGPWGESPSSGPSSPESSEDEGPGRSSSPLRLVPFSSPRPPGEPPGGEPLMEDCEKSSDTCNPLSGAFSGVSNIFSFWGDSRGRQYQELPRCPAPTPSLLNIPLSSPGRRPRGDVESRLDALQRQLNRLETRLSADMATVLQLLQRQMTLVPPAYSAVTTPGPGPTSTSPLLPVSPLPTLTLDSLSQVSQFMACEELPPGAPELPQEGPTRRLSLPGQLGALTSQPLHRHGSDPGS
row,Compound,"hERG current change (%, negative = inhibition) at 1uM"
1,CC(C)(C)NCC(O)COc1cccc2c1CCC(=O)N2.Cl (stereo not shown),6.49%
2,CC(C)(C)NC(=O)c1nn2c(C(F)(F)F)cc(-c3ccccc3)nc2c1Br,16.6%
3,Cc1ccc2nc(-c3ccc(S(=O)(=O)N4CCCCC4)cc3)cn2c1,-2.95%
4,CC1CCCCN1S(=O)(=O)c1ccc(C(=O)Nc2nnc(C3=COCCO3)o2)cc1 (stereo not shown),9.98%
5,COC(=O)C1(C)NC(=O)c2ccccc2N1 (stereo not shown),9.4%
6,CC1CN=C(N(C(=S)Nc2ccccc2)c2cccc(C(F)(F)F)c2)S1 (stereo not shown),8.85%
7,O=C(COc1ccccc1)Nc1ccc(F)cc1,11.4%
8,Cc1cc(NC(=O)Cc2ccccc2)nc2c1c(=O)oc1ccccc12,-2.55%
9,O=C1NC(=O)N(CC2CCCO2)C(=O)/C1=C/c1cccs1 (stereo not shown),13.1%
10,COc1cc2c(cc1C1NC(=S)NC(C)=C1C(N)=O)CCCC2 (stereo not shown),11%
11,Cc1ccc(S(=O)(=O)NCC(=O)OC(C)C(=O)c2ccccc2)cc1 (stereo not shown),7.97%
12,CCc1nn(CC(=O)NC2CCN(Cc3ccccc3)CC2)c(=O)c2cc3cc(F)ccc3n12,5.16%
13,Cc1[nH]c2ccccc2c1/C=N/O,22.3%
14,CCC(C(=O)c1ccc2ncccc2c1)c1ccccc1 (stereo not shown),10.7%
15,O=c1c2ccccc2nc(CSc2nnnn2-c2ccccc2)n1-c1ccccc1,6.22%
16,O=C(c1ccc2c(=O)n(CCc3ccccc3)c(=O)[nH]c2c1)N1CCN(c2ccc(F)cc2)CC1,15.1%
17,CCOC(=O)C1CCCCN1C(=O)c1ccc2nc(Cc3ccc(OC)cc3)oc2c1 (stereo not shown),12.5%
18,O=C(OCCOc1ccc(Br)cc1)c1ccc(Cl)nc1,17.7%
19,CN(C)CCOC(=O)c1sc2ccccc2c1Cl.Cl,1.45%
20,N#C/C(=C\c1ccco1)Sc1nc2ccccc2s1,4.35%
21,Cn1c2ccccc2c(=O)c2c(=O)n(C3CCCCC3)c(-c3ccco3)nc21,5.88%
22,O=C(c1ccccc1)N1CCN(S(=O)(=O)c2cccs2)CC1,3.67%
23,Cl.N=C(c1ccc([N+](=O)[O-])cc1)N1CCCCC1,8.91%
24,CCCCNC(=O)c1onc(CSc2cc(C)ccc2C)c1C(=O)O,8.31%
25,CCCCN(C(=O)C1CC(=O)N(c2ccc3c(c2)OCCO3)C1)c1c(N)n(CCCC)c(=O)[nH]c1=O (stereo not shown),10.1%
